Assays:
[1] = system: BMCRC086 cells; assay: BMCRC086 metastatic colorectal cancer, prophylactic treatment; type: in vivo, CB.17 SCID mice; details: in combination with FOLFIRI, 15 mg/kg BIW
Description: The in vivo study was performed using low passage colorectal cancer cells (BMCRC086) derived from a liver met of a patient with colorectal cancer. On Day 0, BMCRC086 cells were thawed, suspended in RPMI:Matrigel (1:1) and injected subcutaneously into the rear flank of CB.17 SCID mice. Animals were monitored twice weekly for tumor size and body weight. […] Mice were dosed with FOLFIRI (30 mg/kg Fluorouracil and 90 mg/kg Leucovorin on days 7, 12, 17, 22, 27 and 32; 24 mg/kg Irinotecan on days 8, 13, 18, 23, 28 and 33) for 4 weeks (6 doses).

[2] = system: JH109 primary patient derived xenograft of pancreatic cancer; assay: JH109 primary patient derived xenograft tumor growth; type: in vivo, mice
Excerpt: The JH109 xenograft model is from a patient that had received four treatment regimens including 5-FU, Gemcitabine, Erbitux and radiotherapy. The original patient tumor has been passaged in immune-deficient mice continuously without any exposure to in vitro culture. […] Three mice treated with the 18G7H7A3 chemotherapy combination had complete eradication of their tumor (no measureable tumor detected).

[3] = system: PANC1 tumors (cancer stem cell frequency); assay: PANC1 limiting dilution re-implant assay; type: in vivo, CB.17 SCID mice; details: in combination with gemcitabine
Excerpt: Tumors cells from these treatment groups were harvested, dissociated, pooled and re-implanted in a limiting dilution assay (500, 1500, 4500 or 13500 cells/animal) into a new cohort of CB.17 SCID mice and allowed to grow with no treatment.

[4] = system: PANC1 tumors; assay: PANC1 pancreatic cancer xenograft tumor growth; type: in vivo, CB.17 SCID mice
Description: Gemcitabine was administered in assigned group for 3 weeks to inhibit tumor growth. All mice were monitored twice weekly for body weight and tumor size, as well as overall health and appearance.

[5] = system: BLG293 tumors; assay: BLG293 small cell lung cancer patient derived xenograft tumor growth; type: in vivo, CB.17 SCID mice; details: 15 mg/kg BIW
Description: Patient derived small cell lung cancer xenograft model. Dissociated tumor cells from BLG293 tumors were implanted into CB.17 SCID mice in Matrigel subcutaneously, and monitored twice weekly for tumor size and body weight. When tumors reached an average of 130 mm3, mice were randomized. Mice were treated with either PBS, antibody control MOPC, or 18G7H6A3. Mice were dosed BIW at 15 mg/kg for. All mice were monitored twice weekly for body weight and tumor size, as well as overall health and appearance, until termination.

[6] = system: LGR5 expression in JH109, ASPC1 and PANC1 tumors; assay: QPCR of LGR5 expression in treated pancreatic tumors; type: in vivo, mice; details: combination of 18G7H6A3 and SOC
Description: LGR5 expression in metastatic pancreatic patient derived xenografts was investigated using the quantitative polymerase chain reaction (QPCR). A sample of tumor tissue was flash frozen or added to a cryovial containing RNAlater (Qiagen, CA), and transferred to −70° C. after incubation at 4° C. for several hours. Total RNA was extracted using a Qiagen RNeasy extraction kit (Qiagen, CA), and cDNA was synthesized using a SuperScriptIII kit (Life Technologies, CA) and protocols provided by the manufacturer. Human LGR5 transcript abundance was measured using human specific LGR5 and GAPDH primers and the following thermal condition in the StepOne Thermocycler (Life Technologies, CA): 50° C. (2 min); 90° C. (2 min) and 40 cycles of 90° C. (15 sec) and 60° C. (1 min) and melt curve assessment (from 65° C.-95° C.). LGR5 abundance was quantified using 2^δCt equation.
LGR5 expression was investigated in a series of pancreatic tumors including JH109, ASPC1 and PANC1.

[7] = system: Panc1427 (UCSD1427) tumors; assay: Panc1427 survival after debulk chemotherapy; type: in vivo, mice; details: 18G7H6A3 after debulk and removal of chemotherapy
Excerpt: FIG. 23 summarizes the results.

[8] = system: CT1 tumors gene expression; assay: Gene array hybridization of CT1 tumors at day-3; type: in vivo, mice
Excerpt: Expression of 18G7H6A3-targeted genes were investigated in early vs. late tumorigenesis. […] Total RNA from each tumor at day-3 was harvested and prepared for gene array hybridization using Illumina human chips.

[9] = system: MDA-MB-231-LM3 tumors; assay: MDA-MB-231-LM3 triple negative breast cancer tumor growth; type: in vivo, CB.17 SCID mice; details: 15 mg/kg BIW, 7 doses
Description: This in vivo study was performed using low passage triple negative breast cancer cells (ER−, PR−, no HER2 overexpression). MDA-MB-231-LM3 cells were maintained in adherent culture with DMEM/10% FBS/anti-anti medium. CB.17 SCID mice were injected on day 0 with MDA-MB-231-LM3 cells in RPMI:Matrigel (1:1) into the 4th mammary fat pad and monitored twice weekly for tumor size and body weight. At day 27, MDA-MB-231-LM3 tumors were randomized into 4 groups of 10 mice when tumors reached ˜155 mm^3. Mice were treated with PBS, antibody control MOPC, or 18G7H6A3. Mice were dosed BIW at 15 mg/kg for 3.5 weeks (7 doses).

18G7H6A3
anti-tumor activity compared to FOLFIRI alone [1]: significant anti-tumor activity | mice with complete eradication of their tumor (no measureable tumor detected) ([2]; chemotherapy combination, n=7): Three | greater tumor growth inhibition compared to chemotherapy alone ([2]; combined with gemcitabine and nab-paclitaxel chemotherapy): 77% | tumorigenicity in limiting dilution re-implant compared to gemcitabine alone [3]: greatly decreased tumorigenicity | tumor growth inhibition, single agent ([4]; 15 mg/kg twice per week ip, day 70 post implantation): up to 30% | tumor growth inhibition compared to gemcitabine alone group ([4]; in combination with gemcitabine, day 80 post implantation): up to 52% | tumor growth inhibition compared to MOPC antibody [5]: 24.7% | tumor growth inhibition compared to PBS [5]: 24.9% | LGR5 expression in tumors (QPCR) [6]: reduced to levels comparable to controls | health of animals compared to the control animals [7]: noticeably more healthy | differentially expressed tumor promoter genes ([8]; combination of FOLFIRI and 18G7H6A3): downregulation of more tumor promoters such as ALDOC, CDH5, ITGA2 | differentially expressed tumor promoter genes vs. Vehicle ([8]; single agent): ANGPT2, AKAP12 and ADM that were downregulated | tumor growth inhibition compared to MOPC antibody [9]: 49.3% | tumor growth inhibition compared to PBS [9]: 60.7%
